From the BET-seq Pho4 binding data (Le et al. 2018)
Some of the results follow. These are noisy estimates, calculated here from bound and input reads.

Target: T1, Pho4 (S. cerevisiae) (UniProt P07270)
T1 sequence: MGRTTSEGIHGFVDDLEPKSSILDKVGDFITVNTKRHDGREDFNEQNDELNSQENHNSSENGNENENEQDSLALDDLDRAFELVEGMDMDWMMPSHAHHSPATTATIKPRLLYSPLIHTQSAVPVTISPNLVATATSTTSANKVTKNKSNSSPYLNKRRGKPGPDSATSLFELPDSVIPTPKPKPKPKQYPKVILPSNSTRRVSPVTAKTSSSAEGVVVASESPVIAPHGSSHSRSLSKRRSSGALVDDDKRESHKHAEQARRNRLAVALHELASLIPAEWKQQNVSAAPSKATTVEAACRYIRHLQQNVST
Assay: relative binding free energy (BET-seq); higher = weaker binding
Conditions: reference: library average

| Sequence | relative binding free energy |
| --- | --- |
| GAATTCACGTGGCTGG | 0.22 kcal/mol |
| TGTACCACGTGTGGGC | 0.01 kcal/mol |
| GGTGCCACGTGATAGG | 0.04 kcal/mol |
| TGAGGCACGTGGAGTT | -0.08 kcal/mol |
| GGTCTCACGTGTTTAA | 0.38 kcal/mol |
| ATGTTCACGTGCGGCG | 0.15 kcal/mol |
| ATGGTCACGTGGCGCG | -0.04 kcal/mol |
| TTTAACACGTGCGATG | 0.04 kcal/mol |
| AAATGCACGTGATTGA | 0.08 kcal/mol |
| ATCGTCACGTGTTGTT | 0.05 kcal/mol |
| AGGTGCACGTGGCGTA | -0.24 kcal/mol |
| GTGCACACGTGGGCGT | -0.11 kcal/mol |
| GTGGGCACGTGCTGAG | -0.09 kcal/mol |
| ATTTTCACGTGAGTTC | 0.33 kcal/mol |
| TAGCGCACGTGTGGGA | -0.04 kcal/mol |
| TCAGGCACGTGTGGTT | 0.07 kcal/mol |
| AGAGACACGTGGCGTG | -0.13 kcal/mol |
| AGGGCCACGTGGGATT | -0.11 kcal/mol |
| GTATACACGTGGGAAT | 0.03 kcal/mol |
| TTGACCACGTGGGGAT | -0.2 kcal/mol |
| AGTTGCACGTGTGGGT | 0 kcal/mol |
| CTTAGCACGTGTATGG | -0.11 kcal/mol |
| ATGTGCACGTGTATTG | -0.08 kcal/mol |

| Sequence | relative binding free energy |
| --- | --- |
| GGACTCACGTGGGGGT | -0.02 kcal/mol |
| TGCGTCACGTGATGTA | 0.21 kcal/mol |
| ACGTTCACGTGGGGGT | 0.12 kcal/mol |
| TTGTACACGTGATGCT | 0.17 kcal/mol |
| GGGTGCACGTGTCATG | -0.07 kcal/mol |
| TGTTGCACGTGGTTAT | -0.05 kcal/mol |
| AAGTGCACGTGGTTGT | 0 kcal/mol |
| GTTTGCACGTGGCGTC | -0.06 kcal/mol |
| ATGTACACGTGAGGTT | 0.22 kcal/mol |
| TTTGTCACGTGAAGCT | 0.25 kcal/mol |
| CGGACCACGTGAGGGG | 0.15 kcal/mol |
| AGTTGCACGTGGCGGG | -0.02 kcal/mol |
| AAATGCACGTGTTGCA | 0.16 kcal/mol |
| AACCGCACGTGGGGGT | -0.22 kcal/mol |
| ATGGTCACGTGCATCG | 0.11 kcal/mol |
| GGACGCACGTGTGGTT | -0.14 kcal/mol |
| GTAGACACGTGGGGCT | -0.02 kcal/mol |
| ACATACACGTGGGGGT | -0.05 kcal/mol |
| TTAAACACGTGTGGAG | 0.06 kcal/mol |
| ATCGGCACGTGAGGAG | 0.05 kcal/mol |
| GAGGTCACGTGGTGTT | 0.18 kcal/mol |
| GTATGCACGTGTGATT | 0.04 kcal/mol |
| TGGCCCACGTGGTGGT | -0.2 kcal/mol |

| Sequence | relative binding free energy |
| --- | --- |
| TGGTCCACGTGAGTAG | 0.16 kcal/mol |
| TGGAACACGTGGCTTT | -0.13 kcal/mol |
| AGGAGCACGTGCGCTT | -0.01 kcal/mol |
| AGTTGCACGTGTGGTA | 0.07 kcal/mol |
| TGTATCACGTGTGTAG | 0.1 kcal/mol |
| TGTGACACGTGGTACG | -0.16 kcal/mol |
| TGCATCACGTGTGGAG | 0.09 kcal/mol |
| TTCTGCACGTGGTATA | -0.17 kcal/mol |
| TTGGTCACGTGCTGAT | 0.11 kcal/mol |
| ATTACCACGTGGTGTG | -0.19 kcal/mol |
| GAAATCACGTGCGTGG | 0.17 kcal/mol |
| AGGTGCACGTGAAGCT | 0.29 kcal/mol |
| TGTTTCACGTGACGGC | 0.47 kcal/mol |
| GGTCCCACGTGTGTTG | 0.09 kcal/mol |
| GTTGTCACGTGTGAGA | 0.34 kcal/mol |
| TAGTGCACGTGACGGT | 0.11 kcal/mol |
| GGACGCACGTGGTTTG | -0.12 kcal/mol |
| GGTGGCACGTGGAAAG | 0 kcal/mol |
| TGGGACACGTGGGGAC | -0.01 kcal/mol |
| TGCTGCACGTGTGGTA | -0.06 kcal/mol |
| GATATCACGTGGGTGG | 0.01 kcal/mol |
| GTGATCACGTGGGGAT | 0.09 kcal/mol |
| CAGGTCACGTGAAGGG | 0.27 kcal/mol |

| Sequence | relative binding free energy |
| --- | --- |
| TCTGGCACGTGGAGAG | -0.14 kcal/mol |
| TGGTACACGTGCAGGA | 0.03 kcal/mol |
| AGGAGCACGTGAAGGA | 0.18 kcal/mol |
| GTACGCACGTGAGGGC | 0.3 kcal/mol |
| TTTAACACGTGGGTCG | -0.12 kcal/mol |
| AGGCGCACGTGAGGCG | 0.16 kcal/mol |
| TAATACACGTGGTGGG | 0.03 kcal/mol |
| AGTATCACGTGGATGG | 0.18 kcal/mol |
| TCGGTCACGTGTTTAG | 0.09 kcal/mol |
| GGGGGCACGTGTTCTA | -0.05 kcal/mol |
| ATTAGCACGTGTTGGA | -0.05 kcal/mol |
| CGGTACACGTGTGGAT | 0.14 kcal/mol |
| AGATACACGTGAATGG | 0.24 kcal/mol |
| TTAGTCACGTGTCTAG | 0.13 kcal/mol |
| ACGTTCACGTGGGTGT | 0.09 kcal/mol |
| TGTCACACGTGTTAGT | 0.01 kcal/mol |
| GGCACCACGTGGCGGG | 0.04 kcal/mol |
| CGGGGCACGTGGTATG | -0.22 kcal/mol |
| CTGATCACGTGGTGTG | 0.13 kcal/mol |
| AATGTCACGTGATAGG | 0.15 kcal/mol |
| AAACGCACGTGGGTGG | -0.36 kcal/mol |
| TTAGGCACGTGTTTCG | 0 kcal/mol |
| ATTTTCACGTGTGCGT | 0.31 kcal/mol |

| Sequence | relative binding free energy |
| --- | --- |
| AAGGGCACGTGTAGGG | -0.08 kcal/mol |
| TATGGCACGTGCTAGT | -0.11 kcal/mol |
| GTTGACACGTGATTTG | 0.13 kcal/mol |
| TATATCACGTGTATGA | 0.19 kcal/mol |
| GGACGCACGTGTGATG | 0.01 kcal/mol |
| AGATACACGTGTTATG | -0.09 kcal/mol |
| GCTTTCACGTGTTCGT | 0.4 kcal/mol |
| GGGTTCACGTGTGTGT | 0.25 kcal/mol |
| AGCTACACGTGGGGGG | -0.01 kcal/mol |
| ATTAACACGTGTGGCA | 0.04 kcal/mol |
| AGTGACACGTGTTTTC | 0.15 kcal/mol |
| AGACGCACGTGAAGGT | 0.4 kcal/mol |
| TGCTTCACGTGAAGTG | 0.24 kcal/mol |
| GTTAGCACGTGGGGCG | -0.13 kcal/mol |
| TGAATCACGTGTGGGT | 0.27 kcal/mol |
| TGGGCCACGTGATTTT | 0.23 kcal/mol |
| AATGTCACGTGGGGAG | 0.02 kcal/mol |
| AGTATCACGTGCTGGG | 0.06 kcal/mol |
| GTAGACACGTGTTTAG | 0.12 kcal/mol |
| GGGTGCACGTGCTGTG | -0.03 kcal/mol |
| GGAAGCACGTGGATGG | 0 kcal/mol |
| TAGTTCACGTGAAGTT | 0.51 kcal/mol |
| TTATACACGTGTCATT | 0 kcal/mol |
